Results as given in PubChem BioAssay AID488969 (Vanderbilt High Throughput Screening Facility, 2010).
Whole data set: some 110,000 compounds, median “z-score” near -0.1, cut for the highest 2% near 2. The list shows a part of the results. The source made the active and inactive calls.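 The calls were made as follows: active = z-score in the third read window above 3 or below -3; inactive = the rest.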

molecular target: Metabotropic glutamate receptor 8 (Rattus norvegicus) (UniProt P70579); assay: mGluR8 Gi/Go-coupled signaling modulation – cell-based, rat, thallium flux, HTS, primary screen (AID 488969); settings: HEK293 rat mGluR8, GIRK (G protein-gated inwardly rectifying potassium channel) thallium flux, FluoZin2; at 10 µM; stronger effect = higher value; submaximal glutamate (EC20) added with thallium
UniProt P70579, sequence (P70579 whole entry, looked up): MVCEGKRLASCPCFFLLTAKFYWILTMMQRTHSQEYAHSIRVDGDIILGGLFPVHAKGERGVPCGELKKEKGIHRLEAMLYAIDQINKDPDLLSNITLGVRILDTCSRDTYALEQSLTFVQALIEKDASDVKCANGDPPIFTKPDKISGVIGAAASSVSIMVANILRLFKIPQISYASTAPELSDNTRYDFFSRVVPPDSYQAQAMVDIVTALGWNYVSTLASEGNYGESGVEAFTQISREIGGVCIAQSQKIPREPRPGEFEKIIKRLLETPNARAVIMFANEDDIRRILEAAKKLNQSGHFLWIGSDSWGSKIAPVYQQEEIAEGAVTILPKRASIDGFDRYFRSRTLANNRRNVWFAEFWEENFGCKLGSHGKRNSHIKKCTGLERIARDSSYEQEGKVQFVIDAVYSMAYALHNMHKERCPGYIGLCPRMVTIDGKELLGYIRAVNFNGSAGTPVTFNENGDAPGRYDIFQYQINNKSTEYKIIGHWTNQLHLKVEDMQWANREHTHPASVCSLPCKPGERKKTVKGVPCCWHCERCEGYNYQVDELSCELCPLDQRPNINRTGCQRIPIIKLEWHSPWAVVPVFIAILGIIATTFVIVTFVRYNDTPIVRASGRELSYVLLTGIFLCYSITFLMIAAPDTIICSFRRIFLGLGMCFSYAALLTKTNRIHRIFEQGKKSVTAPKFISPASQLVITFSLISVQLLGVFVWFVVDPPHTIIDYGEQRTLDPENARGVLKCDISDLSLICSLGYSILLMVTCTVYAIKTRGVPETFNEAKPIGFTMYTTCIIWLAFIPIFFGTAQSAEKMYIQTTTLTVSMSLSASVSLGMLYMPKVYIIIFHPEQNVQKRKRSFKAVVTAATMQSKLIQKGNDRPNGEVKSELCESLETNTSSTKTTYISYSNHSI

Row | SMILES | z-score
1 | CCCCc1nc(N2CCOCC2)c(C#N)c2c1COC(C)(C)C2 | -0.434
2 | Cc1cc(C)n(-c2nc3ccccc3nc2Nc2ccc(CC(=O)O)cc2)n1 | 1.13
3 | Cc1ccc(OCC(=O)N/N=C\c2ccncc2)c(C)c1 | 1.4
4 | COc1ccc(C(=O)Cn2c(C(=O)/C=C/c3ccccc3)nc3ccccc32)cc1 | 0.108
5 | CCn1c(SCC(=O)N2CCN(S(=O)(=O)c3ccccc3)CC2)nnc1-c1cccs1 | 0.253
6 | c1nnc(NC2=NCCCCC2)s1 | 0.397
7 | O=C(CN1CCN(CC(=O)c2ccc(F)cc2)CC1)Nc1ccccc1Cl | -0.57
8 | O=C(Nc1ccc2c(c1)nc1n2CCN(Cc2ccccc2)C1)NC1CCCCC1 | -0.00948
9 | CC(C)Oc1cc(NC(=O)CS(=O)CC(=O)Nc2cccc(C(F)(F)F)c2)c(Cl)cc1Cl (centres undefined) | 2.75
10 | Cc1ccc(S(=O)(=O)N2CCCC(C(=O)NCCC3=CCCCC3)C2)cc1 (centres undefined) | -0.113
11 | O=c1[nH]c(NCc2ccccc2)nc2c1CCCC2 | -0.118
12 | O=S(=O)(c1ccc2c(c1)nc(COc1ccc(Cl)cc1)n2CC1CCCO1)N1CCOCC1 (centres undefined) | -0.726
13 | COc1ccc(CCNc2cc(=O)[nH]c(N)n2)cc1 | 0.326
14 | CCn1c(CNC(=O)COc2c(C)cccc2C)nnc1SCC(=O)Nc1nccs1 | -0.314
15 | CCC(=O)N1c2ccc(C)cc2C2=NNC(=S)NC21O (centres undefined) | active: 3.09
16 | CN(C(=S)NC(=O)C1(C)CC1(Cl)Cl)c1ccccc1 (centres undefined) | 0.779
17 | Cc1ccc(-c2nc(N/N=C/c3cccnc3)c3ccccc3n2)cc1 | -0.0686
18 | CCCCCCC(=O)N/N=C1\CCCc2ccccc21 | -0.118
19 | Cc1ccnc(NS(=O)(=O)c2ccc(NS(=O)(=O)c3ccccc3)cc2)n1 | 0.597
20 | CN(CC(CC(=O)Nc1nncs1)c1ccccc1)S(=O)(=O)c1ccccc1 (centres undefined) | -0.266
21 | CSc1ccc(/C=N/NC(=O)c2cccc(O)c2)cc1 | -0.311
22 | O=C(NC(c1ccccc1)c1ccccc1)C1CCCN(S(=O)(=O)c2cnc[nH]2)C1 (centres undefined) | 1.14

Row | SMILES | z-score
23 | NC(=O)c1ccc(-n2nnnc2SCc2ccc(F)cc2)cc1 | 0.068
24 | CCOc1cc(C(c2c(C)[nH][nH]c2=O)c2c(C)[nH][nH]c2=O)ccc1OS(=O)(=O)c1ccc(C)cc1 | -0.266
25 | COc1ccc(C2(C)NC(=O)N(CC(=O)Nc3ccc4c(c3)OCO4)C2=O)cc1OC (centres undefined) | -0.168
26 | CC(=O)OC(C(=O)N1CCN(c2ccccc2F)CC1)c1ccccc1 (centres undefined) | 0.124
27 | N#Cc1cccc(NC(=O)COc2ccc(-n3ccnc3)cc2)c1 | 0.292
28 | O=C(CCCN1C(=O)c2ccccc2C1=O)Oc1ccc(F)cc1 | -0.712
29 | CCCc1nnc(NC(=O)Nc2ccccc2OC)s1 | -0.185
30 | O=C(c1ccccc1Nc1ccc(SC(F)F)cc1)N1CCCCCC1 | 0.00907
31 | CN(Cc1nc2ccccc2c(=O)[nH]1)Cc1cc(=O)oc2ccc3ccccc3c12 | -0.196
32 | CC(=O)CC(C)(C)S(=O)(=O)c1ccc(Oc2ccc(S(=O)(=O)C(C)(C)CC(C)=O)cc2)cc1 | -0.0659
33 | Cc1nc(N2CCOCC2)[nH]c(=O)c1CCC(C)C | -1.88
34 | c1ccc2c(c1)C(=NC1CCCCC1)NC2=NC1CCCCC1 | 1.08
35 | CCOC(=O)c1ccc2nc(NC(=O)c3cccs3)sc2c1 | -0.513
36 | CCCCCn1c(=O)[nH]c2cc(C(=O)N3CCN(Cc4ccc5c(c4)OCO5)CC3)ccc2c1=O | -0.162
37 | CCCn1nnnc1SCC(=O)N1CCCC1 | -0.0539
38 | CCN(c1cccc(C)c1)c1nc2ccsc2c(=O)s1 | -0.0631
39 | Nc1nc(CN2CCN(Cc3ccc4c(c3)OCO4)CC2)nc(Nc2ccccc2)n1 | -0.232
40 | CCNc1nc(SC(C(C)=O)C(C)=O)nc(N(C)C)n1 | -0.676
41 | CCN(CC)S(=O)(=O)c1cc(NC(=O)COC(=O)CCc2nc3ccccc3s2)ccc1C | -0.0389
42 | COc1ccccc1C(=O)NCCN1CCN(C(=O)c2ccccc2OC)CC1 | 1.35
43 | CN(C(=S)NC(=O)CCCOc1ccc(Cl)cc1Cl)c1ccccc1 | active: 4
44 | CC(C)(C)C(=O)Nc1cc(S(=O)(=O)Nc2ccc(Cl)cc2)ccc1Cl | -0.577

Row | SMILES | z-score
45 | O=C(/C=C/c1ccc(Cl)cc1Cl)Nc1cccc(S(=O)(=O)NC2=NCCCCC2)c1 | -1.33
46 | CC1(C)CC(=O)c2sc(NC(=O)C3CC3)nc2C1 | -0.251
47 | CCOC(=O)c1c(C)nc2c(C)cccn12 | 0.405
48 | O=S(=O)(c1ccccc1)N1CCN(CC(O)COc2ccc3c(c2)CCC3)CC1 (centres undefined) | 0.35
49 | O=C1OCCC1Sc1ncnc2sccc12 (centres undefined) | 0.0809
50 | CCOc1c(Br)cc(/C=C2\C(=O)N(CCC#N)N=C2C)cc1OC | 0.542
51 | CC(=O)c1cccc(NC(=O)C=C(C)C)c1 | 0.155
52 | CC(C)Oc1cccc(C(=O)NC(=S)Nc2cccc(NC(=O)c3ccccc3Cl)c2)c1 | -0.41
53 | N#Cc1ccsc1NC(=O)CN1CCCCCC1 | 0.519
54 | O=C(Oc1ccc(=O)n(-c2ccccc2)n1)c1cccc(Cl)c1 | -1.51
55 | Cc1ccc(-c2n[nH]c(=O)c3ccccc23)cc1S(=O)(=O)NCCO | -0.17
56 | Brc1ccc(-c2csc(N3CCc4ccccc4C3)n2)cc1 | 0.172
57 | COc1ccc(C)c2sc(=NC(=O)C(C)C)n(C)c12 | -1.24
58 | CCCNC(=S)N1CCC(c2nc3cc(C)c(C)cc3[nH]2)CC1 | -0.228
59 | CSc1nc(Cl)c(Cc2ccc(OC(C)C)cc2)c(N2CCOCC2)n1 | -0.362
60 | Cc1ccc(C)c(NC(=O)Cc2coc3cc4c(cc23)CCC4)c1 | -0.0548
61 | O=C(CSc1nc2ccccc2s1)Nn1cnnc1 | -0.255
62 | O=C1CN(C(=O)COC(=O)C2CCN(S(=O)(=O)c3ccccc3C(F)(F)F)CC2)c2ccccc2N1 | -0.529
63 | CN1CCN(c2ccc(Cl)cc2NS(=O)(=O)c2ccccc2Cl)CC1 | 0.736
64 | Cc1ccc(SCCCCN2CCNCC2)cc1 | -0.134
65 | CCOC(=O)N1CCN(C(=O)c2ccc(NC(=O)CC)cc2)CC1 | -0.194
66 | Cc1[nH]c2ccccc2c1/C=N/NC(=O)C1CC1(c1ccccc1)c1ccccc1 (centres undefined) | -0.129

Row | SMILES | z-score
67 | CC(C)C(=O)Nc1sc2c(c1-c1nc3ccccc3[nH]1)CCCC2 | 0.0241
68 | O=C(COc1ccc(S(=O)(=O)N2CCCC2)cc1)NCc1ccco1 | 0.347
69 | COc1cc(NC(=S)NN2CCOCC2)cc(OC)c1 | 0.132
70 | COCCCN(Cc1ccccn1)S(=O)(=O)Cc1ccccc1 | -0.148
71 | CN(C(=O)c1ccccc1C(=O)OCC(=O)NCc1ccccc1)C1CCCCC1 | -0.146
72 | CC1(C)Cc2c(c(-c3ccco3)nc3sc4c(NCC5CCCO5)ncnc4c23)CO1 (centres undefined) | -0.335
73 | Cc1noc(C)c1CSc1nc2ccccc2[nH]1 | -0.0552
74 | O=C1CSC(c2cccnc2)N1c1ccc(F)cc1 (centres undefined) | 0.224
75 | O=C1CC(c2ccc(F)cc2)CC(O)=C1C=NCCN1CCN(C(=O)Nc2ccccc2)CC1 (centres undefined) | -0.646
76 | CCOC(=O)Cc1csc(NC(=O)NC2(C(F)(F)F)Oc3ccc(Cl)cc3O2)n1 (centres undefined) | -0.0187
77 | O=C(CSc1nnnn1-c1ccc(Cl)cc1)Nc1cccnc1Cl | -0.309
78 | N=C1c2ccccc2CN1NC(=O)c1cccc(S(=O)(=O)N2CCCC2)c1 | -0.196
79 | COc1ccccc1-c1nnc(SCC(=O)OC(C)C)o1 | -1.43
80 | CC(CN1CCCCC1)OC(=O)C1c2ccccc2Oc2ccccc21 (centres undefined) | 1.28
81 | Fc1ccc(Cn2nnnc2CN2CCN(C3CCCCC3)CC2)cc1 | 0.354
82 | O=C(CSc1ccc(Cl)cc1)N1CCN(c2c(Cl)cccc2[N+](=O)[O-])CC1 | -0.078
83 | O=C(c1ccccn1)N1CCN(C(=O)c2ccccn2)CC1 | -0.302
84 | O=C(NNS(=O)(=O)c1ccccc1)c1sccc1-n1cccc1 | 0.148
85 | O=C(NCC1CCCO1)C(c1ccc(F)cc1)N(Cc1ccc(F)cc1)C(=O)Cn1nnc(-c2cccs2)n1 (centres undefined) | 2.46
86 | CCOC(=O)C1=C(Cc2ccc(F)cc2)C(=O)c2ccccc2C1=O | 0.161
87 | O=C(COC(=O)CNS(=O)(=O)c1c(Cl)cccc1Cl)Nc1ccccc1Sc1ccccc1 | -0.588
88 | CC(=O)Nc1ccc(SCC(=O)Nc2cc(C(C)(C)C)nn2-c2ccccc2)cc1 | 0.0545

Row | SMILES | z-score
89 | CC1(C)N=C(N)NC(Nc2ccccc2)=N1 | -0.0426
90 | CCOc1ccc(NC(=O)CSc2ncn[nH]2)c([N+](=O)[O-])c1 | -0.158
91 | COc1ccc(-c2cc(C(F)(F)F)n3nc(C(=O)N4CCCCC4)cc3n2)cc1 | -0.582
92 | CCOC(=O)N1CCN(S(=O)(=O)c2ccc3c(c2)CCN3C(=O)CC)CC1 | -1.1
93 | CC1(C)Cc2cccc(OCC(=O)N3CCN(c4ccc([N+](=O)[O-])cc4)CC3)c2O1 | -1.17
94 | COc1ccc(NC(=O)C2CCCO2)cc1Cl (centres undefined) | -0.016
95 | COC(=O)c1ccc(CNC(=O)CN(CCC(C)C)S(=O)(=O)c2ccc3c(c2)OCCO3)cc1 | -0.397
96 | O=C(Cn1c(=O)oc2cc(S(=O)(=O)N3CCCCCC3)ccc21)NC1CCCCCCC1 | -0.034
97 | Cc1cc(C)c(NC(=O)OCCN2CCOCC2)c(C)c1 | 0.317
98 | CCN1CCN(c2nn3c(=O)c4ccccc4nc3c3ccccc23)CC1 | -0.106
99 | Cc1ccc(C(=O)Oc2ccc(C(=O)COC(=O)c3cnccn3)cc2)cc1 | -0.169
100 | Cc1ccc(C)c(NC(=S)NCC(c2cccnc2)N2CCOCC2)c1 (centres undefined) | -0.0513
101 | CCc1c(C)sc(NC(=O)c2cc(CC(C)C)on2)c1C#N | 1
102 | Cc1ccc(NC(=O)N2CCC(O)(c3ccc(Cl)cc3)CC2)cc1 | 1.93
103 | Cn1c(CCNC(=O)c2ccccc2Cl)n[nH]c1=S | -0.00935
104 | CCOC(=O)/C=C1\SCC(=O)N1CC(=O)NC12CC3CC(CC(C3)C1)C2 | -0.288
105 | O=C(Cc1cccc2ccccc12)N/N=C/c1ccc(Sc2nc3ccccc3s2)o1 | 0.902
106 | Cc1nc(NC(=O)CSc2nnnn2Cc2ccccc2)sc1C | 0.876
107 | CCOC(=O)c1cnc(SC)nc1Oc1cccc(NC(=O)c2cccc(Cl)c2Cl)c1 | -0.241
108 | COc1cccc(N2C(=O)N(c3ccccc3Cl)C3CS(=O)(=O)CC32)c1 (centres undefined) | 0.188
109 | O=C(N/N=C/c1cccs1)c1cccs1 | 0.0886
